Reference: FireProtDB (doi:10.1042/bj2870481)

Conditions: Gallus gallus, 25 °C, GdnHCl, Absorbance, Unknown, KCl 0.1 M, reversible: yes

Question: With Lysozyme C wild type (letters omitted) as the substance, how does the denaturant m value (pH 0.34) read?
Answer: 1.71 kcal/mol/M

Question: What about the “denaturant midpoint (higher = more stable)” value (“denaturant midpoint” for short) (pH 0.34) of the same substance?
Answer: 1.52 M

Question: And the unfolding free energy (pH 0.34)?
Answer: 2.61 kcal/mol

Question: What about the denaturant m value (pH 0.64) of the same substance?
Answer: 1.71 kcal/mol/M

Question: And the “denaturant midpoint” value (pH 0.64)?
Answer: 1.59 M

Question: What about the unfolding free energy (pH 0.64) of the same substance?
Answer: 2.72 kcal/mol

Question: And the denaturant m value (pH 2.03)?
Answer: 1.91 kcal/mol/M

Question: And the “denaturant midpoint” value (pH 2.03)?
Answer: 2.13 M

Question: What about the unfolding free energy (pH 2.03) of the same substance?
Answer: 4.08 kcal/mol

Question: What about the denaturant m value (pH 7) of the same substance?
Answer: 2.11 kcal/mol/M

Question: And the “denaturant midpoint” value (pH 7)?
Answer: 4.21 M

Question: And the unfolding free energy (pH 7)?
Answer: 8.89 kcal/mol
